This is one part of the list. These are noisy estimates, calculated here from bound and input reads.

For this test, the target named is T1, Pho4 (S. cerevisiae) (UniProt P07270).
T1 sequence: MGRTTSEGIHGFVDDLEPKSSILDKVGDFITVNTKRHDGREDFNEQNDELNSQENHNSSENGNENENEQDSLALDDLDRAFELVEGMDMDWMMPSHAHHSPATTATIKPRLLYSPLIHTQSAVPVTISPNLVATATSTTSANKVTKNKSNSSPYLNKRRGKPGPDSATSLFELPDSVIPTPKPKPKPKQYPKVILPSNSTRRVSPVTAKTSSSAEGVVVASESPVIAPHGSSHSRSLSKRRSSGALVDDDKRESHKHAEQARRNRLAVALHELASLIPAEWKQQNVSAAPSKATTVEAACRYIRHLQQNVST
Briefly: relative binding free energy (BET-seq); higher = weaker binding. Particulars: reference: library average.
Turning to GGTTGCACGTGTAGGG, the “relative binding free energy” value was 0.05 kcal/mol. The same measure for TGGAACACGTGTGGTG: 0.03 kcal/mol; for TGCCACACGTGTGTGG: 0.08 kcal/mol. The same measure for TGGGCCACGTGCTTAG: -0.08 kcal/mol; for TCGTGCACGTGTGAGG: 0.07 kcal/mol; for GTTGGCACGTGTGGTG: 0.03 kcal/mol.

As to TGGCTCACGTGGGCGT, the “relative binding free energy” value came out at 0.21 kcal/mol. Take TTTGTCACGTGAGAGT: the “relative binding free energy” value was 0.41 kcal/mol.

On to TTTCGCACGTGAGTCT, for which the “relative binding free energy” value worked out at 0.21 kcal/mol. For the sequence GTTTTCACGTGTCTTA, the “relative binding free energy” value was found to be 0.39 kcal/mol. The result for AATGGCACGTGAATTT reads 0.15 kcal/mol; that for TCAGTCACGTGGGTTC, 0 kcal/mol. In the case of GGGTGCACGTGGTTCG, the “relative binding free energy” value is -0.07 kcal/mol. As to ATGCACACGTGGGTTG, the “relative binding free energy” value was -0.16 kcal/mol. The same measure for GTACGCACGTGCTGGT: -0.05 kcal/mol; for ATTCTCACGTGAGGGG: 0.37 kcal/mol; for GGATTCACGTGGAGTC: 0.4 kcal/mol. Consider TGATTCACGTGACGTT, for which the “relative binding free energy” value was determined as 0.27 kcal/mol. For AGGGGCACGTGGCTGG, the “relative binding free energy” value is -0.21 kcal/mol. Regarding CGTCGCACGTGGGGGC, the “relative binding free energy” value is -0.26 kcal/mol. In the case of TATATCACGTGCGGTA, the “relative binding free energy” value came out at 0.16 kcal/mol.

For TTAAGCACGTGTGGCC, the “relative binding free energy” value worked out at 0.02 kcal/mol. Consider CTTAGCACGTGTGATT, for which the “relative binding free energy” value came out at 0.16 kcal/mol. Turning to AGGGTCACGTGGCATA, the “relative binding free energy” value is 0.02 kcal/mol. For TAACACACGTGTGGTT, the “relative binding free energy” value came out at 0.05 kcal/mol. As to TTCGGCACGTGTTCAT, the “relative binding free energy” value was -0.05 kcal/mol. AATTGCACGTGGTATG: the “relative binding free energy” value was -0.1 kcal/mol. For the sequence GGTTTCACGTGGATCA, the “relative binding free energy” value turned out to be 0.29 kcal/mol. The same measure for GGTGACACGTGGACGG: 0.08 kcal/mol. For the sequence TAAGTCACGTGGACGG, the “relative binding free energy” value was 0.12 kcal/mol. The result for TAGGACACGTGTGTCT reads 0.14 kcal/mol; that for GTGAACACGTGTGGGA, 0.11 kcal/mol; that for AGTCGCACGTGGAGCG, -0.03 kcal/mol. The result for GATGTCACGTGGGGTT reads 0.09 kcal/mol; that for AGGGGCACGTGCATCG, -0.24 kcal/mol.

As to TGTGTCACGTGTAGAA, the “relative binding free energy” value was found to be 0.11 kcal/mol. The result for ATGTCCACGTGGATTT reads 0.15 kcal/mol. The same measure for CTCTTCACGTGTTGGG: 0.24 kcal/mol. In the case of TTAGGCACGTGGTTAT, the “relative binding free energy” value was -0.23 kcal/mol. The same measure for GACGGCACGTGAGGTT: 0.34 kcal/mol; for TATTACACGTGTGTAG: 0.01 kcal/mol; for TTTGCCACGTGGGGTC: -0.13 kcal/mol. The same measure for CGCGGCACGTGTGGGA: -0.05 kcal/mol; for TCGGGCACGTGGTGAA: -0.17 kcal/mol; for AACTTCACGTGTGAGT: 0.3 kcal/mol. Regarding GGAAGCACGTGTTTAT, the “relative binding free energy” value is -0.07 kcal/mol.

CGTGCCACGTGGAGGG: the “relative binding free energy” value stood at 0 kcal/mol. In the case of GGGTGCACGTGATTTG, the “relative binding free energy” value amounted to 0.27 kcal/mol. The result for GGGCGCACGTGTGCGG reads -0.17 kcal/mol.

Turning to CGAGTCACGTGTGGGC, the “relative binding free energy” value was determined as 0.12 kcal/mol. With TATAACACGTGGTTCA, the “relative binding free energy” value was -0.05 kcal/mol.

On to CTATTCACGTGGTGGC, for which the “relative binding free energy” value is 0.23 kcal/mol.

As for TGTTGCACGTGGGAGA, the “relative binding free energy” value is -0.07 kcal/mol. Regarding TGTCGCACGTGAGGAT, the “relative binding free energy” value turned out to be 0.17 kcal/mol. The same measure for GTGAACACGTGTGTCG: 0.1 kcal/mol. For TTGGGCACGTGCTAGT, the “relative binding free energy” value is -0.25 kcal/mol. The same measure for GGAGTCACGTGAAGCT: 0.39 kcal/mol. The same measure for AGAAACACGTGAGTGT: 0.15 kcal/mol; for ATCGGCACGTGGATTT: 0.03 kcal/mol; for TCGGTCACGTGTGGGT: 0.23 kcal/mol.

Take GCGCGCACGTGCTGGG: the “relative binding free energy” value is -0.09 kcal/mol. The result for TAATACACGTGTAGGT reads 0.09 kcal/mol; that for TTTGCCACGTGCTGTT, -0.12 kcal/mol. The same measure for TTTTGCACGTGTCACG: 0.03 kcal/mol; for TAAAACACGTGGTGCT: -0.05 kcal/mol.

With CTTGACACGTGTTGTG, the “relative binding free energy” value came to 0.06 kcal/mol. For GCTTACACGTGTTATT, the “relative binding free energy” value worked out at 0.14 kcal/mol. The same measure for TGAAACACGTGCGGGT: -0.09 kcal/mol; for GGTAGCACGTGGATGA: 0.17 kcal/mol.

As for GAGGTCACGTGGTCGT, the “relative binding free energy” value turned out to be 0.13 kcal/mol. Turning to ATATTCACGTGTGCGG, the “relative binding free energy” value was found to be 0.23 kcal/mol. The result for GCGTTCACGTGAAGGA reads 0.5 kcal/mol.

As to TGTATCACGTGTTTAC, the “relative binding free energy” value is 0.32 kcal/mol. Regarding AAGTACACGTGGATTG, the “relative binding free energy” value amounted to 0.13 kcal/mol. For the sequence TGTAGCACGTGCGTTT, the “relative binding free energy” value is -0.09 kcal/mol. As to AGTTTCACGTGTCGAG, the “relative binding free energy” value turned out to be 0.26 kcal/mol.

Consider GAGTGCACGTGGGACT, for which the “relative binding free energy” value was -0.09 kcal/mol.

As for AAAGTCACGTGTGTGG, the “relative binding free energy” value was 0.09 kcal/mol. The same measure for ATGGTCACGTGTACTG: 0.02 kcal/mol; for CTATTCACGTGTTATA: 0.21 kcal/mol; for TGTGACACGTGATGAA: 0.02 kcal/mol.

On to TAGTGCACGTGAGGTA, for which the “relative binding free energy” value is 0.2 kcal/mol. The result for ACTGTCACGTGGGATT reads 0.01 kcal/mol. As for GTAGTCACGTGGGTGC, the “relative binding free energy” value is -0.03 kcal/mol. The same measure for TTTATCACGTGAGTGT: 0.38 kcal/mol. Consider AGGTGCACGTGAAGTG, for which the “relative binding free energy” value was found to be 0.25 kcal/mol. The same measure for AGGGGCACGTGGGTCT: -0.25 kcal/mol; for TCTGTCACGTGTAAAT: 0.23 kcal/mol. For the sequence CGTAACACGTGGTGGG, the “relative binding free energy” value was -0.2 kcal/mol.

GGCTGCACGTGTGTAA: the “relative binding free energy” value worked out at 0.04 kcal/mol. The result for TCGGTCACGTGGTATT reads 0.07 kcal/mol; that for TGATCCACGTGGGGGT, -0.07 kcal/mol; that for GGGTTCACGTGAAGTT, 0.45 kcal/mol.

On to TGGGCCACGTGGTGTT, for which the “relative binding free energy” value was -0.15 kcal/mol. With TGGTGCACGTGTCTCG, the “relative binding free energy” value was -0.07 kcal/mol. The result for GTAGTCACGTGTGTTA reads 0.12 kcal/mol; that for GTGGCCACGTGGGGTG, -0.22 kcal/mol; that for TTTGGCACGTGCTAAT, -0.2 kcal/mol. The same measure for GGGTTCACGTGTGGTG: 0.36 kcal/mol; for GTGATCACGTGGGACG: 0.08 kcal/mol; for GCGAGCACGTGTGGGT: 0 kcal/mol. The result for GTGAACACGTGGGAGG reads -0.11 kcal/mol.

As to GTTGACACGTGTGGAT, the “relative binding free energy” value turned out to be 0.06 kcal/mol. The same measure for TGTGGCACGTGTGTCT: -0.08 kcal/mol; for TGCTGCACGTGGTGGT: -0.16 kcal/mol. The same measure for TTGAACACGTGGCTGT: 0.12 kcal/mol. GATTGCACGTGGGGCA: the “relative binding free energy” value is -0.15 kcal/mol. The result for AAGGGCACGTGTTCGG reads -0.07 kcal/mol; that for TTGAGCACGTGCTGGC, -0.12 kcal/mol.

Turning to CGTTCCACGTGGATGG, the “relative binding free energy” value came out at 0.1 kcal/mol.

Consider TTATCCACGTGAGTTG, for which the “relative binding free energy” value amounted to 0.12 kcal/mol. Regarding TTAATCACGTGGACGT, the “relative binding free energy” value is 0.11 kcal/mol.

As for ACATTCACGTGTGATG, the “relative binding free energy” value came out at 0.31 kcal/mol.

As for GAGTACACGTGGTAGT, the “relative binding free energy” value is 0 kcal/mol.

For CGGGACACGTGGGTCG, the “relative binding free energy” value is -0.07 kcal/mol.

The values are drawn from the BET-seq Pho4 binding data (Le et al. 2018).
